From paper PMC5745004, “HSP90C interacts with PsbO1 and facilitates its thylakoid distribution from chloroplast stroma in Arabidopsis” (PLoS ONE, 2017) come the findings set out here.

This assay deals with T1, mature form HSP90C (aa. 61-780), purified (Arabidopsis, UniProt Q9SIF2 61-780).
T1 construct: Arabidopsis plastidic HSP90C, mature form, aa 61-780; source: E. coli BL21 (DE3)-pRIL, purified (Ni-NTA, TEV cleavage, Superdex 200)
T1 sequence (looked up): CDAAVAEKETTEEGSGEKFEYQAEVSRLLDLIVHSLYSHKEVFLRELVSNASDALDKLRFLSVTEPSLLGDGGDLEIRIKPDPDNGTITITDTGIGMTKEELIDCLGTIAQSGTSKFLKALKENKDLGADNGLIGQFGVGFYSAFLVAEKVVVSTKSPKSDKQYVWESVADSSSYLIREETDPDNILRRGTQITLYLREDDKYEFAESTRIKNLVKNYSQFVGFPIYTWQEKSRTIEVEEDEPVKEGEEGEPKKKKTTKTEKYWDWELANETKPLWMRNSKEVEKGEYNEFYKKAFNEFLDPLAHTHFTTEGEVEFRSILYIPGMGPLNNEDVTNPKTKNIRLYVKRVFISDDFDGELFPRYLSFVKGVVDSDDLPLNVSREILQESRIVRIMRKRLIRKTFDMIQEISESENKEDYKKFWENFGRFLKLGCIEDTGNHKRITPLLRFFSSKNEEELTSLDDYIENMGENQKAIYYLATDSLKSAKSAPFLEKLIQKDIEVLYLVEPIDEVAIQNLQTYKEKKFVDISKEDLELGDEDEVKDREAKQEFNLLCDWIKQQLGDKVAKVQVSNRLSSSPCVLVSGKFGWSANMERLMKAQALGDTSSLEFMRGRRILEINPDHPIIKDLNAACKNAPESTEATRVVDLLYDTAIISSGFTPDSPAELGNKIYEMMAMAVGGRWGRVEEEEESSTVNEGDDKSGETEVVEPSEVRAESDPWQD
Kind of assay: SEC; in vitro size exclusion chromatography with purified proteins; mPsbO1 or mPsbO1^T200A in presence or absence of HSP90C. Particulars: both partners purified.

B1: mPsbO1^T200A, purified (domain or fragment)
chain: not shown
notes: also called mutant PsbO1; source: E. coli BL21 (DE3)-pRIL, purified (Ni-NTA, TEV cleavage, Superdex 200)
On to B1, for which the binding result is on record as “binds”.
